Test results: PMC6175206
These are yes or no findings as the source states them, for the method shown. For some of these results: In cells and extracts the contact can be indirect. Some results given as binding are weak or reduced against the parent protein; the word gives no strength. Where a sequence is shown, tags or fusion partners need not be part of it.

T1: N-terminally 3xFLAG-tagged Synechocystis sp. PCC 6803 chlorophyll synthase (ChlG) (Synechocystis sp. PCC 6803) (UniProt Q55145)
T1 sequence: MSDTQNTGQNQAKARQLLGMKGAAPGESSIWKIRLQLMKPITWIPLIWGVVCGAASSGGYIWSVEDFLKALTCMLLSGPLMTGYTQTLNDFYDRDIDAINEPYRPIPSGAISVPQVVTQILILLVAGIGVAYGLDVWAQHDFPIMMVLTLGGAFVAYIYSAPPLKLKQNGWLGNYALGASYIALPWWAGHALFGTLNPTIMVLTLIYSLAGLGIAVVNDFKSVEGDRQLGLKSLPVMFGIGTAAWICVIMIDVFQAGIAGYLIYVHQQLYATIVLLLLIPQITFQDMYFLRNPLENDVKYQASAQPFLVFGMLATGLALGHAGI

T2: N-terminally 3xFLAG-tagged Arabidopsis thaliana chlorophyll synthase (ChlG) lacking the chloroplast transit peptide (Arabidopsis thaliana) (UniProt Q38833)
T2 sequence: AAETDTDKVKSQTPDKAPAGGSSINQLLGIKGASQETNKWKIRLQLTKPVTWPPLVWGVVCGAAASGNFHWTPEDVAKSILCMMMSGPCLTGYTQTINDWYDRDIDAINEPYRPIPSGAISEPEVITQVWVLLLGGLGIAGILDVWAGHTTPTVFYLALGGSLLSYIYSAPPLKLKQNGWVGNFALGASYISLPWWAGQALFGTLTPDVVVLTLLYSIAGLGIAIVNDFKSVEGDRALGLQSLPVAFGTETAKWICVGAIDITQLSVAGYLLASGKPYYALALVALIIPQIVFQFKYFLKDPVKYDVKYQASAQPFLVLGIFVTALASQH

T3: N-terminally 3xFLAG-tagged Rhodobacter sphaeroides 2.4.1 bacteriochlorophyll synthase (BchG) (Rhodobacter sphaeroides 2.4.1) (UniProt Q9Z5D6)
T3 sequence: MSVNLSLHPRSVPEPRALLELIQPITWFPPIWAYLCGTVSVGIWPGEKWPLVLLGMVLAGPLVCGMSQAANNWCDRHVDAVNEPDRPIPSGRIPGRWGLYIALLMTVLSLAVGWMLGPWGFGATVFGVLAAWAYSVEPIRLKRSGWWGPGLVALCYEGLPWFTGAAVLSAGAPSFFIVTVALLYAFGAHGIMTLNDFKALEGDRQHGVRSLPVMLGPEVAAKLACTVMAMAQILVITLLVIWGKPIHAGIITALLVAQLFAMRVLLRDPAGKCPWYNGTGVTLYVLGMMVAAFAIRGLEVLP


Experiments:
[1] = target: T1, N-terminally 3xFLAG-tagged Synechocystis sp. PCC 6803 chlorophyll synthase (ChlG) (Synechocystis sp. PCC 6803); assay: co-IP; anti-FLAG-M2 agarose column with membranes solubilised in 2% β-DDM; FLAG-buffer (25 mM sodium phosphate pH 7.4, 10 mM MgCl2, 50 mM NaCl, 10% glycerol), wash with 0.04% β-DDM, elution with 3xFLAG peptide; eluates read by SDS/PAGE and immunoblot; FLAG-6803 also before and after high light stress
[2] = target: T2, N-terminally 3xFLAG-tagged Arabidopsis thaliana chlorophyll synthase (ChlG) lacking the chloroplast transit peptide (Arabidopsis thaliana); assay: as above
[3] = target: T3, N-terminally 3xFLAG-tagged Rhodobacter sphaeroides 2.4.1 bacteriochlorophyll synthase (BchG) (Rhodobacter sphaeroides 2.4.1); assay: as above
[4] = target: T2, N-terminally 3xFLAG-tagged Arabidopsis thaliana chlorophyll synthase (ChlG) lacking the chloroplast transit peptide (Arabidopsis thaliana); assay: SEC; FLAG eluate adjusted to 1% β-DDM, Bio-Sep 3000 gel filtration column on HPLC; fractions read by immunoblot; cells from moderate or normal light
[5] = target: T2, N-terminally 3xFLAG-tagged Arabidopsis thaliana chlorophyll synthase (ChlG) lacking the chloroplast transit peptide (Arabidopsis thaliana); assay: SDS/PAGE band with immunoblot; FLAG-immunoprecipitation eluates on SDS/PAGE; a prominent band cross-reacts with anti-FLAG and anti-ChlG antibodies
[6] = target: T1, N-terminally 3xFLAG-tagged Synechocystis sp. PCC 6803 chlorophyll synthase (ChlG) (Synechocystis sp. PCC 6803); assay: condition: only after high light stress (~800 μmol photons·m^-2·s^-1 for 80 min); SEC; gel filtration of the FLAG-6803 eluate from cells after high light stress (~800 μmol photons·m^-2·s^-1 for 80 min)
[7] = target: T1, N-terminally 3xFLAG-tagged Synechocystis sp. PCC 6803 chlorophyll synthase (ChlG) (Synechocystis sp. PCC 6803); assay: condition: only after high light stress (~800 μmol photons·m^-2·s^-1 for 80 min); co-IP; anti-FLAG immunoprecipitation from FLAG-6803 cells after high light stress (~800 μmol photons·m^-2·s^-1 for 80 min); eluates read by SDS/PAGE, immunoblot and mass spectrometry
[8] = target: T1, N-terminally 3xFLAG-tagged Synechocystis sp. PCC 6803 chlorophyll synthase (ChlG) (Synechocystis sp. PCC 6803); assay: SEC; FLAG eluate adjusted to 1% β-DDM, Bio-Sep 3000 gel filtration column on HPLC; fractions read by immunoblot; cells from moderate or normal light

binding [1]	binding [2]	binding [3]	binding [4]	binding [5]	binding [6]	binding [7]	binding [8]	Binder
binds	binds	binds	binds					membrane insertase YidC (Slr1471) (protein, UniProt P74155 1-384) MDFGIGFISTNIMLPILDFFFGIVHSYGFAIIALTLVIRLGLYPLSAGQIRNMRKMRITQPLMKERQEEIQKRYKDDPAKQQEEMAKVMKEFGNPLAGCLPLLLQMPILFALFATLRGSPFSDINYTVDLQILPQEQVERIVPQTFSTKPQNIYVDEALHYPIAVFLPGGKMLGVGEKTQLEIQSTEGKAFNQVIPEKNSQILTPTYSVTKGEDRISVNPDGTIEALVPGDATVQVTIPGIAARTGFLFIKALGQVGVTGENGEINWDILGMIVFFGFSIYLNQELSGASGGGAPNAQAQQQQTINKITPILFSGMFLFFPLPAGVLMYIVMANVFQTIQTLILMREPLPENLQKLLDEQQKATQGRESLPFEKKSSKKKEKTS
				binds				N-terminally 3xFLAG-tagged Arabidopsis thaliana chlorophyll synthase (ChlG) lacking the chloroplast transit peptide (enzyme, UniProt Q38833 58-387) AAETDTDKVKSQTPDKAPAGGSSINQLLGIKGASQETNKWKIRLQLTKPVTWPPLVWGVVCGAAASGNFHWTPEDVAKSILCMMMSGPCLTGYTQTINDWYDRDIDAINEPYRPIPSGAISEPEVITQVWVLLLGGLGIAGILDVWAGHTTPTVFYLALGGSLLSYIYSAPPLKLKQNGWVGNFALGASYISLPWWAGQALFGTLTPDVVVLTLLYSIAGLGIAIVNDFKSVEGDRALGLQSLPVAFGTETAKWICVGAIDITQLSVAGYLLASGKPYYALALVALIIPQIVFQFKYFLKDPVKYDVKYQASAQPFLVLGIFVTALASQH
	no binding		no binding					high light-inducible protein D (HliD, Ssr1789) (protein, UniProt P72932 1-57) MSEELQPNQTPVQEDPKFGFNNYAEKLNGRAAMVGFLLILVIEYFTNQGVLAWLGLR
binds	no binding		no binding		no binding	no binding	binds	photosystem II assembly factor Ycf39 (Slr0399) (protein, UniProt P74429 1-326) MRVLVVGGTGTLGRQIVRQAIDQGHTVVCLVRSLRKAAFLKEWGATIVGGNICKPETLSPALENIDAVIDASTARATDSLTIRQVDWEGKLNLIRAVQKAGIKKFVFFSILRAAEYPKVPLMDIKNCTEKFLAQTNLDYTILQLAGFMQGLIGQYAIPILDNQSVWQTGENTPIAYMNTQDVAKFAVRAVELDSVARKTYPVVGSRAWGATEIIQLCERMSGNNARISQVPMAVLRFMRSFTRFFQWTYNASDRLAFSEVLASGKALTADMAPVYEQFGLDPKETTTLESYLQEYFGRIIKKLKELDYEVNPTQTEGKKKKNNFFF
